From paper PMC4336329 (PLoS ONE, 2015)
Hit rate of the full screen: of about 310,000 compounds, about 14,000 (4.5%) showed an effect of 50% or more. The effect is printed as a negative number. Some of the results follow.

Target: human ether-à-go-go-related gene (hERG) potassium channel (human, UniProt Q12809)
Assay: primary screen, population patch clamp on CHO cells stably expressing hERG
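Note: peak tail current of the secondary pulse compared with the same well before compound.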

Chain of human ether-à-go-go-related gene (hERG) potassium channel (Q12809 whole entry, looked up): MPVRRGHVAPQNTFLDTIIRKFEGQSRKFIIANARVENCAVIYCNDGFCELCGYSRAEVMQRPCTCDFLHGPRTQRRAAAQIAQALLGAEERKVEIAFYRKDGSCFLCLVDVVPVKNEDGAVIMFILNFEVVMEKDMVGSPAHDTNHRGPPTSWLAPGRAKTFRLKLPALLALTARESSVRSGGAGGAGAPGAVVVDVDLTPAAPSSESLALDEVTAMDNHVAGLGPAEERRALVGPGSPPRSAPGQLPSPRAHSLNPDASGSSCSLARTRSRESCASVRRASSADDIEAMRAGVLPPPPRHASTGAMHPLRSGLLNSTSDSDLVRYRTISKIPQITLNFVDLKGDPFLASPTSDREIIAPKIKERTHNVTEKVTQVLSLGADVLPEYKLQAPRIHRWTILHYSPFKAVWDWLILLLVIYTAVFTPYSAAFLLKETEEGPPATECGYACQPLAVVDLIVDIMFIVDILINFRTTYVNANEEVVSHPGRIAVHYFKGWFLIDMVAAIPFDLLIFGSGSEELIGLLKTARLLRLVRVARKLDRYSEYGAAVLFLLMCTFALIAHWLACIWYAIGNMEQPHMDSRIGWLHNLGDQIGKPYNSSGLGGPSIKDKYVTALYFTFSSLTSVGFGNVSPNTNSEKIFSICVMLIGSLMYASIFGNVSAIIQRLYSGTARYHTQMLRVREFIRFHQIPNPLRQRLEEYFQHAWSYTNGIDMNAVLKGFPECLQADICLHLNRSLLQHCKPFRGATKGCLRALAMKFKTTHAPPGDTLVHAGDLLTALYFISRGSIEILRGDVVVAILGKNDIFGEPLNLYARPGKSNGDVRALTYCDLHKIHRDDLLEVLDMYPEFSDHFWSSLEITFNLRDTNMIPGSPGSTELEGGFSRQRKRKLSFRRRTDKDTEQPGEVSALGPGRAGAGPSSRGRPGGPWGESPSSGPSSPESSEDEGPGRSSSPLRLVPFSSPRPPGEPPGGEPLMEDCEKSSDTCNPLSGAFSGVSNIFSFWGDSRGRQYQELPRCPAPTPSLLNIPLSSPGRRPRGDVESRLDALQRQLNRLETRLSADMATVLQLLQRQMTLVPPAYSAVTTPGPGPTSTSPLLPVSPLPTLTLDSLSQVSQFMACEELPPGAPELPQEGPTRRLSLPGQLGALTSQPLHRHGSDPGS

Structure (SMILES)	hERG current change (%, negative = inhibition) at 10uM
CN(CC1CCOCC1)C(=O)c1ccc2nc(Cc3cccc(Cl)c3)oc2c1	-69.7%
C=CCNC(=O)O/N=C/c1csc([N+](=O)[O-])c1	13.3%
Cn1c(-c2ccc(Br)o2)nc2cc(Br)ccc21	17.9%
COc1ccc(C)cc1N(CC(=O)NCCN1CCOCC1)S(=O)(=O)c1ccccc1	-6.92%
COCCCNC(=O)CCc1c(C)c2cc3c(C)coc3cc2oc1=O	-5.79%
COc1ccccc1CNC(=O)[C@H](C)NC(=O)C1CCN(C(=O)[C@@H](N)CCSC)CC1	8.03%
O=C(CC1C(=O)NCCN1Cc1cccc(Oc2ccccc2)c1)NCCc1cscn1 (centres unmarked)	8.01%
Cc1ccc(Cn2c(C3CCCN3c3nc(C)cs3)nc3cc(C(F)(F)F)ccc32)cc1 (centres unmarked)	0.159%
CCCCOc1ccc(CN(CCO)CCO)cc1[N+](=O)[O-].Cl	-22%
Cc1ccc2c(c1)N(CCC(=O)NC(C)C)C(=O)CO2	13.5%
CCOC(=O)/C(C#N)=N\Nc1cc(Cl)ccc1OC	12.6%
Cl.O=C(CCN1CCN(CCO)CC1)Nc1ccc(C2CCCC2)cc1	-43%
Cc1c(C(=O)NCc2cccnc2)sc2nc(-c3ccccc3)cn12	-55.2%
CC(=O)N/C(=C/c1ccc(OS(=O)(=O)c2ccc(C)cc2)cc1)C(=O)NCCCO	-2.69%
Fc1ccc(-c2ccnc3nc(N4CCN(c5ccccc5)CC4)nn23)cc1	-26.5%
Cc1ccc(C(=O)Nc2cccc(C(=O)N/N=C/c3ccc(F)cc3)c2)cc1	10.5%
O=C(CCCn1c(=S)[nH]c2cc3c(cc2c1=O)OCO3)N1CCN(c2ccccc2F)CC1	20.6%
COc1ccc(C(=O)[C@H]2[C@H]3C(=O)N(c4ccc(OC(C)=O)cc4)C(=O)[C@H]3C3C=CC=NN32)cc1 (some centres unmarked)	9.81%
C=CCN1C(=O)CS/C1=N/c1nccs1	3.51%
Cc1cc(C(=O)Nc2cccc(O)c2)co1	15.4%
O=C(CNC(=O)c1cccnc1)N/N=C/c1cccnc1	8.4%
Cc1nnc(Sc2cc(C(=O)NCCCOC(C)C)c3ccccc3n2)s1	-9.18%
Cn1cc(CC(=O)N2CCN(c3ccccc3F)CC2)c2ccccc21	-9.66%

Structure (SMILES)	hERG current change (%, negative = inhibition) at 10uM
Cc1ccccc1C(=O)NNC(=O)Cc1ccccc1	0.0513%
C[C@@H](NC(=O)c1coc(=O)c(Br)c1)c1ccccc1	3.26%
COc1ccc(C=O)cc1CN1CCCN(Cc2ccc(Cl)cc2)S1(=O)=O	8.59%
NS(=O)(=O)c1ccc(CCNC(=O)CCCOc2ccccc2)cc1	0.619%
CN(C(=O)c1ccncc1)C1CCCN(Cc2ccccc2F)C1 (centres unmarked)	-15.9%
COc1ccc(NC(=O)Nc2ccc3c(c2)N(C)C(=O)CS3)cc1OC	-1.7%
COc1cccc(NC(=O)c2cc(S(=O)(=O)N3CCc4ccccc43)cn2C)c1	15.9%
Nc1c(C(=O)CSc2nnc(-c3ccccc3)o2)c(=O)[nH]c(=O)n1C1CC1	12.2%
O=C(COc1ccccc1)OC(C(=O)c1ccccc1)c1ccccc1 (centres unmarked)	16.5%
CCOC(=O)c1c(C)[nH]c(C(=O)COC(=O)c2oc3ccccc3c2C)c1C	2.49%
O=[N+]([O-])c1cccc(C(=Nc2ccccc2Cl)NO)c1	-21%
Cc1cc(C)c2ccc(NN)nc2c1O	2.07%
Cc1ccc(C(=O)Cn2cnc3ccccc3c2=O)cc1	5.47%
Cc1ccc(-c2cnc(NC(=O)CCC(=O)N(C)Cc3ccccc3)n2C)cc1	-27.5%
COc1ccc(C2(O)CCN(CCCCOc3ccccc3)CC2)cc1	-70.6%
COc1ccccc1C(=O)N/N=C/c1ccc2c(c1)OCO2	8.62%
O=c1nc(N/N=C/c2c[nH]c3ccccc23)cn[nH]1	32%
O=C(N1CCOCC1)N1CCN(Cc2ccccc2)CC1	1.57%
Oc1ccc(/C=N/N=C(c2ccccc2)c2ccccc2)c(O)c1O	8.49%
Cc1ccc(-n2ncc3c2CC(C)(C)CC3NC(=O)C2CCOCC2)cc1 (centres unmarked)	-37.5%
Nn1c(SCCOc2ccc(Cl)cc2)nnc1-c1cccnc1	70.2%
CN(c1ccccc1N(C)S(=O)(=O)c1ccccc1)S(=O)(=O)c1ccccc1	14.1%
O=C(c1ccc2c(c1)OCO2)N1CCN(S(=O)(=O)N2CCCCC2)CC1	-5.57%

Structure (SMILES)	hERG current change (%, negative = inhibition) at 10uM
O=C(Nc1cc(Cl)ccc1Oc1ccccc1)c1ccccc1F	-4.45%
CN(C)c1ccc(/C=C2/NC(=O)NC2=O)cc1	25.7%
C/C(CC(=O)Nc1cc(C)ccn1)=N\NC(=O)c1cccc(C)c1	0.9%
COc1ccccc1NS(=O)(=O)CC12CCC(CC1=O)C2(C)C (centres unmarked)	4.78%
Cc1cc(OC(=O)N(C)C)nc(SCc2c(Cl)cccc2Cl)n1	-6.04%
c1ccc(OCCn2cnc3ccccc32)cc1	-9.08%
C=CCn1c(=N)c(S(=O)(=O)c2ccc(C)c(C)c2)cc2c(=O)n3ccccc3nc21	14.3%
C/C(=N/NC(=O)Cc1c(C)[nH][nH]c1=O)c1ccc(O)cc1	14.8%
COCCCNC(=S)Nc1ccc(C)cc1[N+](=O)[O-]	1.51%
Fc1ccccc1NC(=S)N/N=C/c1ccccc1Br	1.26%
COc1cc(NC(=S)N(C)C)c(OC)cc1Cl	15.2%
O=C(O)CCNC(=O)CCCn1nnc2ccccc2c1=O	13%
CCOC(=O)C1(Cc2cccc(Cl)c2)CCCN(C(=O)c2cnn(CC)c2)C1 (centres unmarked)	-6.39%
Clc1cccc(Cl)c1CNc1ccc(N2CCCC2)cc1	-2.46%
CCOc1ccc(-c2nnc3sc(COc4ccc(Cl)cc4)nn23)cc1	-2.27%
Cc1ccc(S(=O)(=O)N2CCCC(C(=O)NCCc3ccc(S(N)(=O)=O)cc3)C2)cc1 (centres unmarked)	3.93%
CCCCCCCC(=O)Nc1ccc(S(=O)(=O)Nc2nccs2)cc1	4.7%
O=C(NC1CCSC1=O)c1cccc(Cl)c1 (centres unmarked)	0.94%
CN(c1ccccc1)S(=O)(=O)c1cccc(C(=O)OCC(=O)NCCCN2CCCC2=O)c1	-16.9%
Cc1ccc(-c2nc(-c3ccccn3)sc2CC(=O)O)cc1	2.76%
CCOc1ccc(NC(=S)NC(=O)/C=C/c2ccco2)cc1	6.61%
COc1cc(Br)c(CC(=O)NC2CC2)cc1OC	17.8%
Cn1c(CCN2CCOCC2)nc2cc(NC(=O)COc3ccc(Cl)cc3)ccc21	-55.4%

Structure (SMILES)	hERG current change (%, negative = inhibition) at 10uM
CC(C)NC(=O)c1ccc2c3n(nc2c1)-c1ccccc1CO3	-13%
Cc1ccc(Oc2ncc(CN3CCOCC3)s2)cc1	3.3%
COc1ccccc1/C=C/C=N/n1c(C2CCCCC2)n[nH]c1=S	16.2%
O=C(c1ccc(F)cc1F)N1CCCc2ccccc21	-9.83%
CCOCC(=O)Nc1ccc(S(=O)(=O)N2CCC(c3nc4ccccc4[nH]3)CC2)cc1	-14.8%
CN(C(=O)CSc1nnc(-c2ccccc2)n1C)C1CCS(=O)(=O)C1 (centres unmarked)	4.31%
COc1cc(CCC(=O)Nc2ccncc2Cl)cc(OC)c1OC	-0.962%
CN1CCN(C(=O)c2ccc(COc3ccc(Cl)cc3Cl)cc2)CC1	-20.9%
CC(=O)Nc1ccc(Nc2nnc(-c3ccc(C)c(S(=O)(=O)NCC4CCCO4)c3)c3ccccc23)cc1 (centres unmarked)	-5.1%
Cc1ccc(C)n1C(CC(=O)O)c1ccc(C#N)cc1 (centres unmarked)	18.3%
CN(C)C(CNS(=O)(=O)c1ccc(F)cc1)c1cccnc1 (centres unmarked)	29.5%
COCCn1c(SCC(=O)Nc2ccc(OC)cc2OC)nc2ccccc2c1=O	10.5%
CCc1nnc(NS(=O)(=O)c2ccc(NC(=S)NC(=O)c3ccc(F)cc3)cc2)s1	-13.2%
CCOC(=O)C1C(=O)C=C(c2ccc(C)cc2)CC1c1cccc([N+](=O)[O-])c1 (centres unmarked)	-4.88%
CO/N=C1\CCCc2c(C(=O)NN)sc(SC)c21	6.7%
CC(=O)N=c1c(C#N)cc2c(=O)n3cccc(C)c3nc2n1Cc1ccco1	-35.3%
O=C(NNc1c(F)c(F)cc(F)c1F)c1cc2ccccc2oc1=O	9.99%
O=C(CC1S/C(=N/N=C/C=C/c2ccccc2)NC1=O)Nc1ccc(Cl)c(Cl)c1 (centres unmarked)	11.9%
CC(=O)Nc1ccc(NC(=O)CSc2nc(N)c(NC(=O)c3ccccc3F)c(=O)[nH]2)cc1	7.35%
Cc1ccc(S(=O)(=O)N2CCOCC2)cc1NC(=O)CSc1nc2ccccc2c(=O)n1Cc1ccccc1	-46.1%
